The full ranking holds about 4,100 sequences; the median of “arbitrary fluorescence units” is about 780, and the highest 2% start at about 22,000. Some of the results follow.

This test deals with T1, ETS1 (UniProt P14921).
T1 sequence: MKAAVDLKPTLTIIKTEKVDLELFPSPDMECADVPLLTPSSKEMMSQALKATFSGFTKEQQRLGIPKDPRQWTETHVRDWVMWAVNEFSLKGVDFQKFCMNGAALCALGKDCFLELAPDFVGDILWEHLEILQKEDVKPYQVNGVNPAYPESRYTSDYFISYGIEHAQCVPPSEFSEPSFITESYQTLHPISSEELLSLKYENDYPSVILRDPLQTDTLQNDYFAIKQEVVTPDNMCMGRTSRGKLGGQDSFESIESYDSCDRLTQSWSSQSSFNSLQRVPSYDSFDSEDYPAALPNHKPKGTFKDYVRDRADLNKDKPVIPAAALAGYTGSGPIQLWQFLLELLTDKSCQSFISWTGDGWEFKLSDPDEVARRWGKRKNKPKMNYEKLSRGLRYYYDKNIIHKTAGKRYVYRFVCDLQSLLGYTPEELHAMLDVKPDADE
Briefly: ETS1 binding intensity (PBM fluorescence), ETS1 alone (arbitrary fluorescence units); higher = stronger binding. Particulars: ETS1 concentration 1 nM; RUNX1 concentration 0 nM. The method in brief:
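Double-stranded Agilent 4 × 180k arrays held 36-bp genomic probes whose RUNX1 partner site was mutated, and these were incubated with 1 nM full-length recombinant human ETS1 in the absence of RUNX1 under standard PBM protocols. Bound protein was labelled with anti-ETS1 antibody (Cell Signaling Technology 14069) plus an Alexa488-conjugated secondary and read on a GenePix 4400A, with four spots printed per sequence. Binding level is reported as raw spot fluorescence intensity summarised over replicate spots.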
The sequence ACAGGAAACTAAAATAAGAACAGAACACCAAGACAG gave an ETS1 binding intensity of 509. The sequence CCGGGCGCCACTTCCGGTCCCCGTGGACACGTGACC returned an ETS1 binding intensity of 53800. The result for GAAGGCGGTTCCGGTTCGCGGCGATTCCCGGGTTTT reads 3850; that for TGTGTAATCCCCACGACAACCTAGGAAGTGGGAAAA, 410; that for CTCCCACTGGGGTTGCCCCCTTCCTCTCAGTGGCAC, 434. For CTATTGTCGTATTAAAAAGAGAGGCTGGGGGAAGTG, the ETS1 binding intensity was 609. The result for TTCTGTGTGATTACTTTAAATACCAAAAGGAAATGT reads 608; that for TATCACGTTTCCTGCTGCTGCACCTCGACCTCAGCT, 5680. The result for CCCACTCCACTTCCGCCACCGCCGAATCCGCCGCTG reads 11700; that for CAGAGGAAGCCCACCCCATAAAAGAACGACAGATAA, 471. CTCCTTTGCCTGCAGCGGCTGGTCCGGTTTACATCA: the ETS1 binding intensity is 353. Regarding GGACCTGCACCCTGGTCCCGCGGGCCGGACGGAGGT, the ETS1 binding intensity is 343. The result for AGGGGAGGCCTGTCGTTCTCACTTCCTGGCAGAGCT reads 2020; that for GCAGCGCCTTAGAGCGCTCGGCCATCCTGACTGCTT, 262; that for CCAAACGCTTCCCGGTACGTGTTGCTGCGAGAACCC, 931. TAAAACACCAGGAAACTCTGTGCTGAGTGGGAGGTG: the ETS1 binding intensity is 483. Take ATTTGTCACCAAAGCACAGAGAGGAAATGATTGTAA: the ETS1 binding intensity came to 640. As to GTGCAGCGCCCGAGGCCGAGAGAGGAAGTAGATCCC, the ETS1 binding intensity is 738. In the case of TTTACTGAGAGGAAGTGGTTCTTGTAGGTGAAGGTC it was 1510.

TGCAACGACAGGGGCGAAGAAGTCAGGAAATGCTGC registered an ETS1 binding intensity of 432.

In the case of ACTTTAGCGTACGGTAGATTTCCTAGATAACCTGAG, the ETS1 binding intensity was 475. TGTGATAAGGATGTTCGTGTGCCTTGTAGTCAGGTG had an ETS1 binding intensity of 398. For the sequence CGAAGTCAGCGCGGCCAGAGAAAGGATGTGATATAG, the ETS1 binding intensity amounted to 397. In turn, GAATTCGGGGGTGGGCACCCTATTCTCACTTCCCCT yielded an ETS1 binding intensity of 632. The result for TCGCCAGCGGCAAACAGGCCACATCCCCAGCCCATC reads 349; that for GTACGCTGGGCCGCTGTCCCTGCCGGGAAGTGTAGT, 334. The result for GCCATCCAGGAAGTACAGACTCCCTGACAGCACTGA reads 2850.

CCTGCTTGCATGTAGTTCAGACATCCTGAGGTGGTA came in with an ETS1 binding intensity of 475. The sequence GGCAACCTGAGCTTCCGTGTAAAACTACAGTGTGAC yielded an ETS1 binding intensity of 938.

The sequence CGGAGGCGGCCGGAAGTAGCGCTGCTGTTGGCAGCT displayed an ETS1 binding intensity of 12300.

As to CACCCTGCCACTTCCCTAAACTCCCCGCGCAGGCCG, the ETS1 binding intensity was 1050.

Sequence TGTCATCCCGGAAACTGATAACAAGACCTCGAGTCA displayed an ETS1 binding intensity of 4740. The result for CCACCACCTACAGCAGCTGCAAACATCCTCCAGACC reads 497; that for AAAGGCGGAAGGGGGGCAGGGAACTCACAAAACAGA, 1470; that for AAAGTCAAAATCACAGGAACAGGAAACTGTTCACTG, 1210. Sequence AACAGATCCTTCCTGGCCCCCACTAGCGACAGGTTT came in with an ETS1 binding intensity of 1610. The sequence TATTCAGGCTTCCGGGTGATGTTTATGGCCACCCGG gave an ETS1 binding intensity of 5730. In the case of GTTAAGCTGCGCTCAGACCTAAGGGAGGATGTGGCT it was 328; in that of AGCTGGTTAGCCGGATAGAATGTGCGTGCCGAGGGC, 355; in that of ACCTAATGGCCCCAATGGAGAACTGCAGGATGTAGA, 440. Take CCGGCGGCCTGCAGTGCATGCCGGGAAACGTAGTTC: the ETS1 binding intensity amounted to 411.

(Values after the supplement of paper PMC10681739.)
